{"source": "PubChem BioAssay AID485281", "about": "(National Center for Advancing Translational Sciences (NCATS), 2010)", "note": "Among all 350,000 compounds or so, about 260 (0.074%) were called active. The shares of active, inactive and inconclusive entries below differ from those in the screen. The call rests on the fitted dose curve; in most records, active means well fitted inhibition curve with a large enough effect; inconclusive means small, poorly fitted or top-dose-only effect; inactive means no such curve, though single readings can be large or run the other way. A potency beside an inconclusive call is a rough fit, not a confirmed value. Potency means the concentration at half of the fitted maximal effect; tags describe the fitted curve by direction and shape.", "data": [{"target": "Ferritin light chain (Equus caballus) (UniProt P02791)", "sequence (P02791 whole entry, looked up)": "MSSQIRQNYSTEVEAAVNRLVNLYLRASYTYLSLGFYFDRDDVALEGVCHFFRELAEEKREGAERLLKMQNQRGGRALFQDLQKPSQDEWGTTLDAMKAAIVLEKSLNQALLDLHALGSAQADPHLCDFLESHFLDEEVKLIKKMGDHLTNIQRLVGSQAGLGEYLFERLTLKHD", "experiment": "qHTS Assay for Identification of Novel General Anesthetics; further: nearly all actives have a fitted effect of over 20% in size", "settings": "apoferritin/1-aminoanthracene competitive binding, fluorescence; series mostly up to 77.5 µM", "summary_of_the_method": "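Horse-spleen apoferritin (10 uM) in 50% saturated 1-aminoanthracene in PBS was incubated 10 min at room temperature with compound. Fluorescence (ex 380, em 535 nm) was normalized to free and bound 1-AMA, with concentration-response fitted by a four-parameter Hill equation.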", "values": [{"smiles": "Cc1ccc2nc(Cl)c3cc(C(=O)NCCCN4CCCC4)sc3c2c1", "Potency": "inactive"}, {"smiles": "O=C(Nc1ccc(C(=O)N2CCCCC2)cc1)c1nsc2ccccc12", "Potency": "inconclusive: 5.62 µM [inhibitor, full curve]"}, {"smiles": "O=C1CC(c2ccco2)Cc2nc(N3CCc4ccccc4C3)ncc21", "note": "(stereo not drawn)", "Potency": "inconclusive: 28.2 µM [inhibitor, partial curve]"}, {"smiles": "COc1cc(Cl)c(C)cc1NC(=O)CCc1c(C)nc2c3cccnc3nn2c1C", "Potency": "inactive"}, {"smiles": "COc1ccc(CNC(=O)C(CCSC)NS(=O)(=O)c2ccc3c(c2)oc(=O)n3C)cc1", "note": "(stereo not drawn)", "Potency": "inactive"}, {"smiles": "Cc1ccccc1CSCC(=O)NC(=O)NC(C)(C)C", "Potency": "inconclusive: 17.8 µM [inhibitor, partial curve]"}, {"smiles": "CC(C)(C)c1nc(S(=O)(=O)c2ccc(Cl)cc2)c(N2CCOCC2)o1", "Potency": "inactive"}, {"smiles": "Cc1ccc(C2CC(=O)N3CN(c4ccc(Br)cc4)CSC3=C2C#N)o1", "note": "(stereo not drawn)", "Potency": "inconclusive: 28.2 µM [inhibitor, partial curve]"}, {"smiles": "COc1cc(SC)ccc1C(=O)N1CCN(c2ccccc2)CC1", "Potency": "inconclusive: 6.31 µM [inhibitor, full curve]"}, {"smiles": "O=C(NC(=S)NCCc1ccccc1)c1ccco1", "Potency": "inconclusive: 44.7 µM [inhibitor, partial curve]"}, {"smiles": "Brc1ccccc1C1CC(c2ccccc2)=Nc2ccccc2N1", "note": "(stereo not drawn)", "Potency": "inconclusive: 44.7 µM [inhibitor, single point]"}, {"smiles": "Cc1cccc(C2NC(c3cccc(C)c3)C([N+](=O)[O-])C(C)(C)C2[N+](=O)[O-])c1", "note": "(stereo not drawn)", "Potency": "inconclusive: 39.8 µM [inhibitor, partial curve]"}, {"smiles": "Brc1cc2c(cc1CSc1ncccn1)OCO2", "Potency": "inconclusive: 50.1 µM [inhibitor, single point]"}, {"smiles": "O=C(CCn1cnc2ccccc2c1=O)Nc1cccc(Cl)c1Cl", "Potency": "inactive"}, {"smiles": "CN(C)CCNC(=O)c1cccc(NS(=O)(=O)c2ccc(Cl)c(Cl)c2)c1", "Potency": "inconclusive: 22.4 µM [inhibitor, partial curve]"}, {"smiles": "CCOc1cc(C#N)c(NC(=O)c2ccc(OC)c(S(=O)(=O)N3CCN(c4ccccc4)CC3)c2)cc1OCC", "Potency": "inactive"}, {"smiles": "CC(CNC(=O)CCC(=O)N1CCOc2ccc(Cl)cc21)c1ccccc1", "note": "(stereo not drawn)", "Potency": "inconclusive: 20 µM [inhibitor, partial curve]"}, {"smiles": "CCCOc1ccc(CNC(=O)c2oc3ccc4c(c3c2C)C(=O)CC(C)(CC)O4)cc1", "note": "(stereo not drawn)", "Potency": "inconclusive: 11.2 µM [inhibitor, partial curve]"}, {"smiles": "CC(C)(C)CC(=O)NC(=S)NCc1ccccc1", "Potency": "inconclusive: 20 µM [inhibitor, partial curve]"}, {"smiles": "COc1ccc2nc3oc(C(=O)N4CC(C)CC(C)C4)cc3cc2c1", "note": "(stereo not drawn)", "Potency": "inconclusive: 35.5 µM [inhibitor, partial curve]"}, {"smiles": "CCc1ccc(OCCCOc2ccc(C=O)cc2)cc1", "Potency": "inconclusive: 28.2 µM [inhibitor, partial curve]"}, {"smiles": "Fc1c(F)c(C(F)(F)F)c(F)c(F)c1N/N=C\\c1cccs1", "Potency": "inconclusive: 12.6 µM [inhibitor, partial curve]"}, {"smiles": "CC1CCC(N2CC(=O)N(C3CCCCC3)C(c3ccc(Cl)cc3)C2=O)CC1", "note": "(stereo not drawn)", "Potency": "inactive"}, {"smiles": "Cc1ccc(-n2nc3c(N4CCC(C(=O)NCc5ccc(C)o5)CC4)nnc(C)c3c2C)cc1", "Potency": "inconclusive: 28.2 µM [inhibitor, partial curve]"}, {"smiles": "O=C(Nc1ccc(Br)cc1)c1cc(-c2cccs2)nc2ccccc12", "Potency": "inactive"}, {"smiles": "CC(=O)Nc1ccc(S(=O)(=O)N2CCN=C2SCc2ccccc2C)cc1", "Potency": "inconclusive: 28.2 µM [inhibitor, partial curve]"}, {"smiles": "O=C(CCC(=O)c1cccs1)Nc1ccccc1F", "Potency": "inconclusive: 39.8 µM [inhibitor, partial curve]"}, {"smiles": "COc1ccc(-c2cc(C(=O)Oc3ccc(C)cc3)c3ccccc3n2)cc1", "Potency": "inactive"}, {"smiles": "NC(=O)COc1ccc(Cc2ncc(C(F)(F)F)cc2Cl)cc1", "Potency": "inconclusive: 15.8 µM [inhibitor, partial curve]"}, {"smiles": "CCOc1ccccc1CNC(=O)CCc1c(C)nn(-c2ccc(N3CCCCC3)nn2)c1C", "Potency": "inactive"}, {"smiles": "CC(C)(C)C1CCc2onc(C(=O)NCc3ccc(F)cc3)c2C1", "note": "(stereo not drawn)", "Potency": "inconclusive: 6.31 µM [inhibitor, full curve]"}, {"smiles": "O=C(Nc1ccc(N2CCN(C(=O)c3ccccc3)CC2)cc1)c1cc([N+](=O)[O-])ccc1N1CCOCC1", "Potency": "inconclusive: 25.1 µM [inhibitor, partial curve]"}, {"smiles": "CCOc1cc(C2C(C(=O)OC)=C(C)NC3=C2C(=O)c2ccccc23)ccc1OC", "note": "(stereo not drawn)", "Potency": "inconclusive: 17.8 µM [inhibitor, partial curve]"}, {"smiles": "Cc1ccc(C(=O)NNC(=O)c2ccc(NC(=O)C(C)(C)C)cc2)cc1", "Potency": "inconclusive: 20 µM [inhibitor, partial curve]"}, {"smiles": "Nc1nonc1C(=Nc1ccc(Br)cc1)NO", "Potency": "inconclusive: 31.6 µM [inhibitor, partial curve]"}, {"smiles": "CCc1cc(-c2n[nH]c(C)c2-c2ccc3c(c2)OCCO3)c(O)cc1O", "Potency": "inactive"}, {"smiles": "O=C(NCCCNc1ccc(C(F)(F)F)cc1[N+](=O)[O-])c1cc(F)c(F)cc1Cl", "Potency": "inconclusive: 20 µM [inhibitor, partial curve]"}, {"smiles": "CCN(CCCNC(=O)CC(C(=O)N1CCc2ccccc21)n1ccnc1)c1cccc(C)c1", "note": "(stereo not drawn)", "Potency": "inconclusive: 11.2 µM [inhibitor, full curve, poor fit]"}, {"smiles": "COc1ccc(-c2cn[nH]c2-c2ccc(OCc3ccccc3)cc2O)cc1", "Potency": "inconclusive: 50.1 µM [inhibitor, single point]"}, {"smiles": "CC(C)(C)C1CCC(=NNc2ccc(S(N)(=O)=O)cc2[N+](=O)[O-])CC1", "note": "(stereo not drawn)", "Potency": "inconclusive: 50.1 µM [inhibitor, single point]"}, {"smiles": "Cc1[nH]n(-c2ccccc2)c(=O)c1C(c1ccccc1[N+](=O)[O-])C(C#N)C#N", "note": "(stereo not drawn)", "Potency": "inactive"}, {"smiles": "O=[N+]([O-])c1nn(-c2ccc3c(c2)OCCO3)n(O)c1=NCCC1=CCCCC1", "Potency": "inconclusive: 20 µM [inhibitor, partial curve]"}, {"smiles": "Cc1cc(C)cc(NC(=O)c2cccn2-c2ncc(C(F)(F)F)cc2Cl)c1", "Potency": "inconclusive: 20 µM [inhibitor, partial curve]"}]}]}
